Hit rate of the full screen: of about 39,000 compounds, about 220 (0.56%) showed activity. Some of the results follow.
The compounds below were run on Escherichia coli K-12 BW25113 (assay: relative growth (OD600 normalised to plate interquartile mean) (fraction); higher = less growth inhibition, active = 0.2 or less). Conditions: 50 µM; LB; incubation time: overnight (16-24 h).
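Note: static incubation at 37 °C against the wild-type strain, values averaged over two biological replicates.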

SMILES	relative growth
C[C@@H]1CN([C@H](C)CO)C(=O)Cc2cc(NS(=O)(=O)c3ccc(F)cc3)ccc2O[C@H]1CN(C)Cc1ccc(-c2ccccc2)cc1	inactive: 0.982
COc1ccc(NC(=O)Nc2ccc3c(c2)C(=O)N([C@H](C)CO)C[C@H](C)[C@@H](CN(C)C(=O)Nc2ccc(C(F)(F)F)cc2)O3)cc1	inactive: 1
CC(C)C[C@@H](NC(=O)CCN)C(=O)O	inactive: 0.982
Cc1noc(C)c1NC(=O)Nc1ccc2c(c1)C(=O)N([C@@H](C)CO)C[C@H](C)[C@H](CN(C)Cc1ccccc1)OCCCC[C@@H](C)O2	inactive: 0.996
C[C@H]1CN([C@@H](C)CO)C(=O)c2cc(NC(=O)Cc3ccccc3)ccc2O[C@H]1CN(C)Cc1ccc(-c2ccccc2)cc1	inactive: 0.967
C[C@H]1CN([C@@H](C)CO)C(=O)c2cc(NS(=O)(=O)c3cn(C)cn3)ccc2O[C@H]1CN(C)Cc1ccc2c(c1)OCO2	inactive: 1.01
CN(C)CCOC(c1ccccc1)c1ccccc1.Cl	inactive: 1.12
C[C@H]1CN([C@@H](C)CO)C(=O)c2cc(NC(=O)c3ccncc3)ccc2O[C@H]1CN(C)Cc1ccc2c(c1)OCO2	inactive: 0.986
C[C@@H]1CCCCO[C@H](CN(C)C(=O)Nc2cccc3ccccc23)[C@@H](C)CN([C@H](C)CO)C(=O)c2cc(NS(=O)(=O)c3ccc(F)cc3)ccc2O1	inactive: 1.03
C[C@@H]1CCCCO[C@H](CN(C)S(C)(=O)=O)[C@@H](C)CN([C@H](C)CO)C(=O)c2cc(NS(=O)(=O)c3ccccc3)ccc2O1	inactive: 0.99
C[C@H]1CN([C@@H](C)CO)C(=O)c2cc(NC(=O)CCN3CCOCC3)ccc2O[C@@H]1CN(C)C(=O)NC1CCCCC1	inactive: 0.985
C[C@@H]1CN([C@H](C)CO)C(=O)Cc2cc(NC(=O)C3CCCCC3)ccc2O[C@@H]1CN(C)Cc1ccc(Cl)c(Cl)c1	inactive: 0.993
Fc1cccc2c(Cl)ccnc12	inactive: 0.976
CNC[C@H]1COCCO1	inactive: 1.04
CCOC(=O)[C@@H]1CCCCN1C(=O)C(=O)OC	inactive: 1
C[C@H]1CN([C@@H](C)CO)C(=O)Cc2cc(NC(=O)CCC(F)(F)F)ccc2O[C@H]1CN(C)C(=O)Nc1ccc(C(F)(F)F)cc1	inactive: 0.995
Cn1c(=O)c(=O)n(C)c2cc(S(=O)(=O)N3CCOCC3)ccc21	inactive: 0.971
C[C@H]1CN([C@@H](C)CO)S(=O)(=O)c2ccc(C#Cc3cccnc3)cc2O[C@H]1CN(C)C(=O)CN(C)C	inactive: 0.992
Cc1ccc(S(=O)(=O)N(C)C[C@@H]2Oc3c(NS(C)(=O)=O)cccc3C(=O)N([C@H](C)CO)C[C@H]2C)cc1	inactive: 0.957
Cc1noc(C)c1NC(=O)Nc1ccc2c(c1)C(=O)N([C@H](C)CO)C[C@H](C)[C@@H](CN(C)S(C)(=O)=O)O2	inactive: 0.971
C[C@@H]1CN([C@@H](C)CO)C(=O)CCCn2nncc2CO[C@@H]1CN(C)C(=O)Nc1ccc(C(F)(F)F)cc1	inactive: 0.975
CCOC(=O)/C(C)=N/NC(C)=O	inactive: 1.01

SMILES	relative growth
O=C(C[C@@H]1C=C[C@@H](NC(=O)c2cccnc2)[C@@H](CO)O1)NCCN1CCCCC1	inactive: 1.01
C[C@H](CO)N1C[C@H](C)[C@@H](CN(C)C(=O)Nc2ccc3c(c2)OCO3)OCCCC[C@H](C)Oc2ccc(NC(=O)NC3CCCCC3)cc2C1=O	inactive: 1.02
CN(C)CC#Cc1ccc([C@@H]2[C@@H](CO)N3C(=O)CN(C(=O)CN(C)C)C[C@H]23)cc1	inactive: 1.01
Cc1noc(C)c1NC(=O)Nc1ccc2c(c1)C(=O)N([C@H](C)CO)C[C@@H](C)[C@H](CN(C)C(=O)c1ccccc1)OCCCC[C@H](C)O2	inactive: 0.998
COc1ccc(NC(=O)Nc2ccc3c(c2)[C@@H]2C[C@H](CC(=O)NCc4ccccn4)O[C@H](CO)[C@@H]2O3)cc1	inactive: 1.02
CC(=O)C1(O)CCC2C3C=C(Cl)C4=CC(=O)C5CC5C4(C)C3CCC21C (centres undefined)	inactive: 1.15
COCC(=O)N[C@@H]1C=C[C@H](CC(=O)N2CCCCC2)O[C@H]1CO	inactive: 0.891
Cc1ccc(S(=O)(=O)Nc2ccc3c(c2)C(=O)N([C@H](C)CO)C[C@@H](C)[C@@H](CN(C)Cc2ccc(Cl)c(Cl)c2)OCCCC[C@H](C)O3)cc1	inactive: 1
Cc1noc(C)c1S(=O)(=O)N(C)C[C@H]1OCCCC[C@@H](C)Oc2ccc(NC(=O)Nc3ccccc3)cc2C(=O)N([C@H](C)CO)C[C@@H]1C	inactive: 1
C[C@H]1CN([C@@H](C)CO)C(=O)Cc2cc(NC(=O)Nc3cccc(C(F)(F)F)c3)ccc2O[C@H]1CN(C)S(=O)(=O)c1ccc(Oc2ccccc2)cc1	inactive: 1.03
c1ccc2c(c1)ccc1cc3c(ccc4ccccc43)cc12	inactive: 1.02
C[C@@H]1CCCCO[C@H](CN(C)C(=O)NC2CCCCC2)[C@@H](C)CN([C@H](C)CO)C(=O)c2cc(NC(=O)c3ccncc3)ccc2O1	inactive: 1.01
COc1ccccc1S(=O)(=O)N[C@H]1CC[C@@H](CCNC(=O)C2CCOCC2)O[C@H]1CO	inactive: 0.999
CC(C)NC(=O)Nc1cccc2c1O[C@H](CN(C)Cc1ccc(Oc3ccccc3)cc1)[C@H](C)CN([C@H](C)CO)C2=O	inactive: 0.993
Cc1cc(C(=O)Nc2cccc3c2O[C@@H](CN(C)Cc2ccncc2)[C@@H](C)CN([C@@H](C)CO)C3=O)n(C)n1	inactive: 1.01
Cc1cc(=O)nc(C)[nH]1	inactive: 1
COc1ccc2c3c([nH]c2c1)[C@@H](CO)N(C[C@]13CCN(CC1)CC1CCCCC1)C(=O)Nc1c(noc1C)C	inactive: 0.993
Cn1cnc(S(=O)(=O)N[C@@H]2C=C[C@H](CC(=O)NCC3CC3)O[C@H]2CO)c1	inactive: 0.996
COc1cccc(NC(=O)N[C@@H]2CC[C@H](CC(=O)N3CCOCC3)O[C@H]2CO)c1	inactive: 0.972
CCn1c2c(ccc1=O)C[C@H](N)CC2	inactive: 1.03
C[C@H](CO)N1C[C@H](C)[C@@H](CN(C)C(=O)NC2CCCCC2)Oc2c(NS(=O)(=O)c3cn(C)cn3)cccc2C1=O	inactive: 0.991
C[C@@H]1CN([C@@H](C)CO)C(=O)c2cc(NC(=O)Nc3cccc4ccccc34)ccc2O[C@@H]1CN(C)C(=O)Nc1ccc2c(c1)OCO2	inactive: 1.03

SMILES	relative growth
Nc1nnc(N)c2ccccc12	inactive: 1.04
C[C@H]1CN([C@@H](C)CO)C(=O)c2c(c3ccccc3n2C)-c2ccccc2CO[C@@H]1CN(C)C(=O)Nc1ccccc1	inactive: 0.99
CC/C=C\C/C=C\C/C=C\CCCCCCCCCC(=O)O	inactive: 0.969
C[C@@H]1CN([C@H](C)CO)C(=O)c2cc(NC(=O)Nc3ccc4c(c3)OCO4)ccc2O[C@H]1CN(C)S(C)(=O)=O	inactive: 0.991
CC(C)NCC(O)COc1cccc2ccccc12.Cl (centres undefined)	inactive: 1.01
C[C@@H]1CN([C@H](C)CO)S(=O)(=O)c2ccc(C#CCN(C)C)cc2O[C@@H]1CN(C)Cc1ccncc1	inactive: 0.996
CN(C)CCCNC(=O)C[C@@H]1CC[C@@H](NS(=O)(=O)c2ccccc2)[C@@H](CO)O1	inactive: 0.996
O=C(CCc1ccc(O)cc1)c1c(O)cc(O)cc1OC1OC(CO)C(O)C(O)C1O (centres undefined)	inactive: 1.1
C[C@@H]1CCCCO[C@@H](CN(C)Cc2ccncc2)[C@@H](C)CN([C@H](C)CO)C(=O)c2cc(NC(=O)Nc3ccccc3)ccc2O1	inactive: 0.986
C[C@H](CO)N1C[C@H](C)[C@H](CN(C)S(=O)(=O)c2cn(C)cn2)Oc2ccc(NS(=O)(=O)c3cn(C)cn3)cc2C1=O	inactive: 1.02
Cc1ccc(S(=O)(=O)N(C)C[C@H]2Oc3c(NC(=O)Nc4cccc5ccccc45)cccc3C(=O)N([C@H](C)CO)C[C@@H]2C)cc1	inactive: 1.03
Cc1noc(C)c1NC(=O)N(C)C[C@H]1Oc2c(NC(=O)c3cnccn3)cccc2C(=O)N([C@@H](C)CO)C[C@H]1C	inactive: 0.987
C[C@@H]1CN([C@@H](C)CO)C(=O)c2cccc(NC(=O)c3cnccn3)c2O[C@H]1CN(C)C(=O)Nc1ccccc1	inactive: 0.99
Cc1ccc(S(=O)(=O)Nc2cccc3c2O[C@@H](CN(C)Cc2ccc(Oc4ccccc4)cc2)[C@@H](C)CN([C@@H](C)CO)C3=O)cc1	inactive: 1.01
CCCCCOc1ccc(-c2cc(-c3ccc(C(=O)N[C@H]4C[C@@H](O)[C@@H](O)NC(=O)[C@H]5[C@@H](O)[C@@H](C)CN5C(=O)[C@H]([C@@H](O)CC(N)=O)NC(=O)[C@H]([C@@H](O)[C@@H](O)c5ccc(O)c(OS(=O)(=O)O)c5)NC(=O)[C@H]5C[C@@H](O)CN5C(=O)[C@H]([C@@H](C)O)NC4=O)cc3)no2)cc1	inactive: 0.952
CCCCc1oc2ccc(NS(C)(=O)=O)cc2c1C(=O)c1ccc(OCCCN(CCCC)CCCC)cc1.Cl	inactive: 1.13
C[C@H](CO)N1C[C@H](C)[C@H](CN(C)Cc2ccc(C(F)(F)F)cc2)OCCCC[C@H](C)Oc2ccc(NC(=O)CCC(F)(F)F)cc2C1=O	inactive: 0.94
C[C@H](CO)N1C[C@H](C)[C@@H](CN(C)C(=O)Nc2ccc(C(F)(F)F)cc2)Oc2ccc(NC(=O)Nc3cccc4ccccc34)cc2CC1=O	inactive: 1.02
Clc1ccc(-c2cccs2)nn1	inactive: 0.961
C[C@@H]1CCCCO[C@H](CN(C)C(=O)c2ccncc2)[C@H](C)CN([C@H](C)CO)C(=O)c2cc(NS(=O)(=O)c3ccc(Cl)cc3)ccc2O1	inactive: 0.984

— the supplement of paper PMC9446081
